Reference: US20120100139A1 (APTEVO RESEARCH AND DEVELOPMENT, published 2012)

T1: CD86 on cells (WIL2-S human B-lymphoblastoid cells; HuCD86-2A2 CHO cells expressing CD86) (human, UniProt P42081 24-329)
T1 construct: whole, on cells; also called cell surface CD86
T1 sequence (looked up): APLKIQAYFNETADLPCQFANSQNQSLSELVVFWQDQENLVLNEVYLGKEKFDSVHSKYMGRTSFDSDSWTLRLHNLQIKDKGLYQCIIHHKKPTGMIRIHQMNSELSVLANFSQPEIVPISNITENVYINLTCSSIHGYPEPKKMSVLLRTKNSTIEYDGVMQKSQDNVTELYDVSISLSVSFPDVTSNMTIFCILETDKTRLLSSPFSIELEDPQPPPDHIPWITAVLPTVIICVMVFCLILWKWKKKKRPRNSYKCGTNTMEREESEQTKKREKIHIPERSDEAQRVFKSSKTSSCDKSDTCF

T2: soluble IL-10 receptor 1 (IL-10R1, R&D Systems) (human, UniProt Q13651 22-235)
T2 construct: Bought soluble receptor; also called sIL10Ra; sIL10R1
T2 sequence (looked up): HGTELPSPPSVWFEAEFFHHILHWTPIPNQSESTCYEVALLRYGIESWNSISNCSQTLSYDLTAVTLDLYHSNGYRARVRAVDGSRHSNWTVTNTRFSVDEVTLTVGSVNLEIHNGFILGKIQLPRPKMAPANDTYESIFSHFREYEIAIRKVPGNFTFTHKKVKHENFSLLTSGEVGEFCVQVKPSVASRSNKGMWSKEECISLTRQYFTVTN

T3: CD80-mIg (Ancell Catalog #510-020) (UniProt P33681 35-242)
T3 construct: Bought reagent; also called CD80-mIgG; sCD80
T3 sequence (looked up): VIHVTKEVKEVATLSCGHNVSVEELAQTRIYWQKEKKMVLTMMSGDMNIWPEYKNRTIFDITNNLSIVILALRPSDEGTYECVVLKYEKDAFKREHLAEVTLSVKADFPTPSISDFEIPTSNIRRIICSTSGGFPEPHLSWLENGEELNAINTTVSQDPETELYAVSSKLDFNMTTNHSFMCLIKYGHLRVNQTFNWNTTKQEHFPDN

T4: Murine CD86-mIgG (R&D Systems, Inc) (murine, UniProt P42082 24-244, limits assumed)
T4 construct: also called muCD86
T4 sequence (looked up): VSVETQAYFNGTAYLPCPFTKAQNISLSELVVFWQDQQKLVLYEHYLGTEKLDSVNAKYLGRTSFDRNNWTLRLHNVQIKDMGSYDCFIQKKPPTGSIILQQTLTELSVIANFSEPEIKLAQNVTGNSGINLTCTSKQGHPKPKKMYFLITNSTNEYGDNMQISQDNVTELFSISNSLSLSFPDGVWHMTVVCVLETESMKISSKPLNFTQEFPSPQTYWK


Legend:
[1] = target: T1, CD86 on cells (WIL2-S human …); experiment: flow cytometry on CD86-expressing CHO cells
Method: (§1) Briefly, WIL2-S or HuCD86-2A2 cells were incubated with test molecules containing a CD86 antagonist at concentrations ranging from saturation to background levels. […] After the incubation, cells were washed and a fluorophore (R-phycoerythrin) tagged F(Ab′)₂ antibody specific for the Fc portion of the xceptor molecule, IL10R-Ig fusion protein, or anti-IL10 antibody. The tagged cells were then passed through a flow cytometer and data was analyzed by plotting median fluorescence intensity of each sample.

[2] = target: T2, soluble IL-10 receptor 1 (IL-10R1, R&D …); experiment: SPR (BIAcore T100), IL-10R1 immobilized on CM5; calculated from ka1 and kd1
[3] = target: T3, CD80-mIg (Ancell Catalog #510-020); experiment: SPR (BIAcore T100), CD80-mIgG immobilized on CM5; steady-state equilibrium fit
Method: (§2) Surface plasmon resonance (SPR) measurements were performed on a BIAcore™ T100 SPR (Pharmacia Biotech AB, Uppsala) using HBS-EP+ (GE Healthcare) as a running buffer. […] CTLA4-containing constructs were injected for 150 seconds, at a flow rate of 10 μl/min, in a series of concentrations from 5 nM to 1 μM. Dissociation was monitored for 600 seconds, and the surface was regenerated by injecting 50 mM sodium citrate, 500 mM sodium chloride, pH 4.0, for 60 seconds. […] Data were analyzed using BiaEvaluation for the T100 software (version 2.0.1, GE Healthcare).

[4] = target: T2, soluble IL-10 receptor 1 (IL-10R1, R&D …); experiment: SPR (BIAcore T100), IL-10R1 immobilized on CM5; bivalent analyte model, first site
[5] = target: T3, CD80-mIg (Ancell Catalog #510-020); experiment: SPR (BIAcore T100), CD80-mIgG immobilized on CM5; bivalent analyte model, first site
Method: as §2

[6] = target: T3, CD80-mIg (Ancell Catalog #510-020); experiment: SPR (BIAcore T100), CD80-mIgG immobilized on CM5; bivalent analyte model, second site
Method: as §2

[7] = target: T1, CD86 on cells (WIL2-S human …); experiment: flow cytometry on HuCD86-2A2 CHO cells with IL10R1-muIg
Method: as §1

[8] = target: T2, soluble IL-10 receptor 1 (IL-10R1, R&D …); experiment: ELISA, sIL10Ra (FIG. 12); also simultaneous with CD80 (FIG. 13)
[9] = target: T4, Murine CD86-mIgG (R&D Systems, Inc); experiment: SPR (BIAcore T100), murine CD86-mIgG immobilized on CM5; bivalent analyte model, first site
Method: (§3) SPR measurements were performed on a BIAcore™ T100 SPR (Pharmacia Biotech AB, Uppsala) using HBS-EP+ (GE Healthcare) as a running buffer. Murine CD86-mIgG (25 μg/mL in 10 mM sodium acetate, pH 4.0, R&D Systems, Inc) was directly immobilized onto a CM5 chip using standard amine coupling chemistry (Biacore Amine Coupling Kit, GE Healthcare), with final immobilization levels of 150, 493, and 746 Ru. CTLA4-containing constructs were injected for 150 seconds, at a flow rate of 10 μl/min, in a series of concentrations from 4 nM to 8 μM. Dissociation was monitored for 600 seconds (CTLA4 constructs) or 1200 seconds (GL1 constructs), and the surface was regenerated by injecting 10 mM glycine, pH 1.7, for 60 seconds. […] Data were analyzed using BiaEvaluation for the T100 software (version 2.0.1, GE Healthcare).

[10] = target: T4, Murine CD86-mIgG (R&D Systems, Inc); experiment: SPR (BIAcore T100), murine CD86-mIgG immobilized on CM5; bivalent analyte model, second site
Method: as §3

[11] = target: T4, Murine CD86-mIgG (R&D Systems, Inc); experiment: SPR (BIAcore T100), murine CD86-mIgG immobilized on CM5; steady-state equilibrium, multiple Rmax fit
Method: as §3

Binder | binding result [1] | Kd [3] [nM] | koff [5] [s⁻¹] | kon [5] [M⁻¹ s⁻¹] | Second Site ka [6] [s⁻¹] | Second Site kd [6] [s⁻¹] | binding result [7] | koff [9] [s⁻¹] | kon [9] [M⁻¹ s⁻¹] | Second Site ka [10] [s⁻¹] | Second Site kd [10] [s⁻¹] | Kd [11] [nM] | further results
CTLA4::monoIL10 xceptor (Fc fusion) [about 120 residues not spelt out]EPKSSDKTHTCPPCPAPEAAGAPSVFLFPPKPKDTLMISRTPEVTCVVVDVSHEDPEVKFNWYVDGVEVHNAKTKPREEQYNSTYRVVSVLTVLHQDWLNGKAYACAVSNKALPAPIEKTISKAKGQPREPQVYTLPPSRDELTKNQVSLTCLVKGFYPSDIAVEWESNGQPENNYKTTPPVLDSDGSFFLYSKLTVDKSRWQQGNVFSCSVMHEALHNHYTQKSLSLSPGNSLFNQEVQIPLTESYSPNSSPGQGTQSENSCTHFPGNLPNMLRDLRDAFSRVKTFFQMKDQLDNLLLKESLLEDFKGYLGCQALSEMIQFYLEEVMPQAENQDPDIKAHVNSLGENLKTLRLRLRRCHRFLPCENGGGSGGKSKAVEQVKNAFNKLQEKGIYKAMSEFDIFINYIEAYMTMKIRN | – | – | – | – | – | – | binds | – | – | – | – | – | –
(CTLA4::IL10)-68 xceptor (Fc fusion) [about 120 residues not spelt out]EPKSSDKTHTCPPCPAPEAAGAPSVFLFPPKPKDTLMISRTPEVTCVVVDVSHEDPEVKFNWYVDGVEVHNAKTKPREEQYNSTYRVVSVLTVLHQDWLNGKAYACAVSNKALPAPIEKTISKAKGQPREPQVYTLPPSRDELTKNQVSLTCLVKGFYPSDIAVEWESNGQPENNYKTTPPVLDSDGSFFLYSKLTVDKSRWQQGNVFSCSVMHEALHNHYTQKSLSLSPGNSLFNQEVQIPLTESYSPNSSPGQGTQSENSCTHFPGNLPNMLRDLRDAFSRVKTFFQMKDQLDNLLLKESLLEDFKGYLGCQALSEMIQFYLEEVMPQAENQDPDIKAHVNSLGENLKTLRLRLRRCHRFLPCENKSKAVEQVKNAFNKLQEKGIYKAMSEFDIFINYIEAYMTMKIRN | binds | 37.5 | 0.0145 | 977000 | 0.019 | 0.0434 | – | 0.0241 | 10400 | 0.0398 | 0.0627 | 1540 | binding result [8]: binds
CTLA4::IL10 I87A xceptor (Fc fusion, also called CTLA4::IL10187A) [about 120 residues not spelt out]EPKSSDKTHTCPPCPAPEAAGAPSVFLFPPKPKDTLMISRTPEVTCVVVDVSHEDPEVKFNWYVDGVEVHNAKTKPREEQYNSTYRVVSVLTVLHQDWLNGKAYACAVSNKALPAPIEKTISKAKGQPREPQVYTLPPSRDELTKNQVSLTCLVKGFYPSDIAVEWESNGQPENNYKTTPPVLDSDGSFFLYSKLTVDKSRWQQGNVFSCSVMHEALHNHYTQKSLSLSPGNSLFNQEVQIPLTESYSPNSSPGQGTQSENSCTHFPGNLPNMLRDLRDAFSRVKTFFQMKDQLDNLLLKESLLEDFKGYLGCQALSEMIQFYLEEVMPQAENQDPDAKAHVNSLGENLKTLRLRLRRCHRFLPCENKSKAVEQVKNAFNKLQEKGIYKAMSEFDIFINYIEAYMTMKIRN | – | – | – | – | – | – | binds | – | – | – | – | – | –
muCTLA4-Ig (murine CTLA4 fusion to human Fc domain) (Fc fusion) [about 120 residues not spelt out]EPRVPITQNPCPPLKECPPCAAPDAAGAPSVFIFPPKIKDVLMISLSPMVTCVVVDVSEDDPDVQISWFVNNVEVHTAQTQTHREDYNSTLRVVSALPIQHQDWMSGKAFACAVNNRALPSPIEKTISKPRGPVRAPQVYVLPPPAEEMTKKEFSLTCMIAGFLPAEIAVDWTSNGRTEQNYKNTATVLDSDGSYFMYSKLRVQKSTWERGSLFACSVVHEGLHNHLTTKTISRSLGK | – | – | – | – | – | – | – | 0.0386 | 27800 | 0.000659 | 0.00311 | 2250 | –

Now from value to binder, other results behind:

binding result [1] | Kd [3] [nM] | koff [5] [s⁻¹] | kon [5] [M⁻¹ s⁻¹] | Second Site ka [6] [s⁻¹] | Second Site kd [6] [s⁻¹] | binding result [7] | koff [9] [s⁻¹] | kon [9] [M⁻¹ s⁻¹] | Second Site ka [10] [s⁻¹] | Second Site kd [10] [s⁻¹] | Kd [11] [nM] | Binder | further results
binds | 233 | 0.008 | 190000 | 0.0045 | 0.015 | – | – | – | – | – | – | (CTLA4::IL10)-65 xceptor (Fc fusion, CTLA4 ectodomain - Fc - linker - IL10; also called CTLA4/IL10 Xceptor) [about 120 residues not spelt out]EPKSSDKTHTCPPCPAPEAAGAPSVFLFPPKPKDTLMISRTPEVTCVVVDVSHEDPEVKFNWYVDGVEVHNAKTKPREEQYNSTYRVVSVLTVLHQDWLNGKAYACAVSNKALPAPIEKTISKAKGQPREPQVYTLPPSRDELTKNQVSLTCLVKGFYPSDIAVEWESNGQPENNYKTTPPVLDSDGSFFLYSKLTVDKSRWQQGNVFSCSVMHEALHNHYTQKSLSLSPGQRHNNSSLNTRTQKARHSPNSSPGQGTQSENSCTHFPGNLPNMLRDLRDAFSRVKTFFQMKDQLDNLLLKESLLEDFKGYLGCQALSEMIQFYLEEVMPQAENQDPDIKAHVNSLGENLKTLRLRLRRCHRFLPCENKSKAVEQVKNAFNKLQEKGIYKAMSEFDIFINYIEAYMTMKIRN | Kd [2]: 0.41 nM; koff [4]: 0.00029 s⁻¹
– | – | – | – | – | – | binds | – | – | – | – | – | CTLA4::IL10 I87S xceptor (Fc fusion, also called CTLA4::IL10187S) [about 120 residues not spelt out]EPKSSDKTHTCPPCPAPEAAGAPSVFLFPPKPKDTLMISRTPEVTCVVVDVSHEDPEVKFNWYVDGVEVHNAKTKPREEQYNSTYRVVSVLTVLHQDWLNGKAYACAVSNKALPAPIEKTISKAKGQPREPQVYTLPPSRDELTKNQVSLTCLVKGFYPSDIAVEWESNGQPENNYKTTPPVLDSDGSFFLYSKLTVDKSRWQQGNVFSCSVMHEALHNHYTQKSLSLSPGNSLFNQEVQIPLTESYSPNSSPGQGTQSENSCTHFPGNLPNMLRDLRDAFSRVKTFFQMKDQLDNLLLKESLLEDFKGYLGCQALSEMIQFYLEEVMPQAENQDPDSKAHVNSLGENLKTLRLRLRRCHRFLPCENKSKAVEQVKNAFNKLQEKGIYKAMSEFDIFINYIEAYMTMKIRN | –
